This is an account of results in the antibiotic and cytotoxicity screens of Wong et al. (2023).

The list shows a part of the results.

The subject of one experiment is HSkMC. Briefly: cytotoxicity call (relative viability < 0.9). The following applies: 10 µM.
A further experiment has as its system HepG2. The experiment in a line: cytotoxicity call (relative viability < 0.9). The following applies: 10 µM.
The next experiment relates to S. aureus RN4220. Briefly: growth inhibition call (relative growth <= 0.2). The following applies: 50 µM.

Turning to `COc1ccc(NC(=O)N(C)C[C@H]2OCCCC[C@@H](C)Oc3ccc(NC(=O)CCC(F)(F)F)cc3C(=O)N([C@@H](C)CO)C[C@H]2C)cc1`, the cytotoxicity call in the experiment with HSkMC and in the experiment with HepG2 was “inactive” in each case. In addition, in the experiment on S. aureus RN4220, the growth inhibition call is “inactive”.

For `C[C@@H]1CN([C@@H](C)CO)C(=O)c2cc(NC(=O)Nc3cccc4ccccc34)ccc2O[C@@H](C)CCCCO[C@H]1CN(C)C(=O)Nc1ccccc1`, the cytotoxicity call in the experiment on HSkMC and in the experiment with HepG2 was “inactive” in each case. In the experiment on S. aureus RN4220, the growth inhibition call is “inactive”.

Regarding `CC(C)NC(=O)Nc1ccc2c(c1)C(=O)N([C@H](C)CO)C[C@@H](C)[C@@H](CN(C)S(=O)(=O)c1ccc(F)cc1)O2`, the cytotoxicity call with HSkMC and with HepG2 was “inactive” in each case. Besides, in the experiment on S. aureus RN4220, the growth inhibition call was “inactive”.

For the molecule `C[C@H]1CN([C@@H](C)CO)C(=O)Cc2cc(NC(=O)Nc3ccc(F)cc3)ccc2O[C@H]1CN(C)CC1CCCCC1`, the cytotoxicity call with HSkMC and in the experiment with HepG2 was “active” throughout. The growth inhibition call in the experiment with S. aureus RN4220 is “inactive”.

Regarding `O=C(CN1CCOCC1)NCC[C@@H]1CC[C@H](NC(=O)Cc2ccccn2)[C@H](CO)O1`, the cytotoxicity call with HSkMC and in the experiment with HepG2 was “inactive” each time. For the same molecule, the growth inhibition call with S. aureus RN4220 is “inactive”.

With `CN1CCN(C(=O)C[C@@H]2C=C[C@@H](NC(=O)Nc3ccccc3F)[C@@H](CO)O2)CC1`, the cytotoxicity call with HSkMC and in the experiment on HepG2 was “inactive” in each case. For the same molecule, the growth inhibition call with S. aureus RN4220 is “inactive”.

Turning to `C[C@@H]1CN([C@H](C)CO)C(=O)c2cc(C#CC3(O)CCCC3)cnc2O[C@@H]1CN(C)C(=O)Cc1cccnc1`, the cytotoxicity call with HSkMC and with HepG2 was “inactive” each time. Moreover, the growth inhibition call in the experiment on S. aureus RN4220 was “inactive”.

As to `CN1CCc2nc(C(=O)N[C@@H]3C[C@@H](C(=O)N(C)C)CC[C@@H]3NC(=O)C(=O)Nc3ccc(Cl)cn3)sc2C1`, the cytotoxicity call with HSkMC and in the experiment with HepG2 was “inactive” each time. Besides, the growth inhibition call in the experiment on S. aureus RN4220 was “inactive”.

For the molecule `C[C@H]1CN([C@@H](C)CO)C(=O)CCCn2nncc2CO[C@H]1CN(C)C(=O)Nc1ccnc(N2CCOCC2)c1`, the cytotoxicity call in the experiment on HSkMC and with HepG2 was “inactive” each time. The growth inhibition call in the experiment on S. aureus RN4220 is “inactive”.

In the case of `C[C@@H]1CN([C@H](C)CO)C(=O)c2cc(C#Cc3ccccc3F)cnc2O[C@@H]1CN(C)C(=O)Cc1cccnc1`, the cytotoxicity call in the experiment with HSkMC and in the experiment with HepG2 was “inactive” each time. Moreover, the growth inhibition call with S. aureus RN4220 was “inactive”.

In the case of `COC(=O)CN1C(=O)CSc2ncccc21`, the cytotoxicity call in the experiment with HSkMC and with HepG2 was “inactive” each time. For the same molecule, in the experiment with S. aureus RN4220, the growth inhibition call is “inactive”.

As for `C[C@H]1CN([C@@H](C)CO)C(=O)c2cc(NC(=O)CCC(F)(F)F)ccc2O[C@H]1CN(C)C(=O)Nc1cccc2ccccc12`, the cytotoxicity call with HSkMC and in the experiment with HepG2 was “inactive” throughout. Also, in the experiment on S. aureus RN4220, the growth inhibition call is “inactive”.

In the case of `COCC(=O)N(C)C[C@H]1Oc2cc(C#C[C@@H](C)O)ccc2S(=O)(=O)N([C@H](C)CO)C[C@@H]1C`, the cytotoxicity call in the experiment on HSkMC and in the experiment on HepG2 was “inactive” in each case. In the experiment on S. aureus RN4220, the growth inhibition call is “inactive”.

For the molecule `CC(C)(C)[S@](=O)N1Cc2cc(C(=O)NCc3ccccc3F)nc(-c3cccc(-c4cccnc4)c3)c2[C@@H]1CCO`, the cytotoxicity call with HSkMC and in the experiment on HepG2 was “inactive” in each case. Also, the growth inhibition call in the experiment on S. aureus RN4220 was “inactive”.

On to `CCNc1nc(=O)cc(F)[nH]1`, for which the cytotoxicity call in the experiment on HSkMC and in the experiment with HepG2 was “inactive” each time. The growth inhibition call in the experiment with S. aureus RN4220 was “inactive”.

Regarding `C[C@H]1CN([C@@H](C)CO)C(=O)CCCn2cc(nn2)CO[C@@H]1CN(C)C(=O)c1ccc(N2CCN(C)CC2)cc1`, in the experiment on HSkMC, the cytotoxicity call was “inactive”. Moreover, in the experiment on HepG2, the cytotoxicity call was “active”. Also, the growth inhibition call in the experiment with S. aureus RN4220 is “inactive”.

Regarding `COc1ccc(NC(=O)N(C)C[C@H]2OCCCC[C@H](C)Oc3ccc(NC(=O)Nc4ccccc4)cc3C(=O)N([C@@H](C)CO)C[C@H]2C)cc1`, the cytotoxicity call in the experiment on HSkMC and in the experiment on HepG2 was “inactive” in each case. Moreover, in the experiment with S. aureus RN4220, the growth inhibition call was “inactive”.

Regarding `CC(C)NCCCC[C@H](NC(=O)[C@H]1CCC(=O)N[C@@H](Cc2ccccc2)C(=O)N[C@H](Cc2ccc(O)cc2)C(=O)N[C@@H](CCCCNC(C)C)C(=O)N[C@H](CCCN=C(N)N)C(=O)N[C@@H](Cc2ccc3ccccc3c2)C(=O)NCC(=O)N1)C(N)=O`, the cytotoxicity call in the experiment on HSkMC and with HepG2 was “inactive” throughout. Further, in the experiment with S. aureus RN4220, the growth inhibition call was “inactive”.

Take `C[C@@H]1CN([C@H](C)CO)C(=O)c2cc(C#Cc3cccnc3)cnc2O[C@H]1CN(C)Cc1ccc(F)cc1`: the cytotoxicity call in the experiment on HSkMC and in the experiment with HepG2 was “inactive” throughout. Moreover, in the experiment with S. aureus RN4220, the growth inhibition call was “inactive”.

On to `O=C(CN1CCOCC1)N[C@H]1CC[C@@H](CCNC(=O)Nc2cc(F)ccc2F)O[C@@H]1CO`, for which the cytotoxicity call with HSkMC and with HepG2 was “inactive” each time. The growth inhibition call in the experiment with S. aureus RN4220 is “inactive”.

Take `C[C@@H]1CN([C@H](C)CO)C(=O)c2cc(NS(C)(=O)=O)ccc2O[C@H]1CN(C)S(=O)(=O)c1ccccc1`: the cytotoxicity call in the experiment with HSkMC and with HepG2 was “inactive” each time. The growth inhibition call in the experiment on S. aureus RN4220 was “inactive”.

With `c1csc(CNc2ccc(NCc3cccs3)cc2)c1`, the cytotoxicity call in the experiment on HSkMC and in the experiment with HepG2 was “inactive” each time. In the experiment with S. aureus RN4220, the growth inhibition call is “inactive”.

With `Cn1c(=O)c2c(nc(SCCNS(=O)(=O)c3ccccc3)n2C)n(C)c1=O`, the cytotoxicity call in the experiment on HSkMC and in the experiment with HepG2 was “inactive” in each case. For the same molecule, the growth inhibition call in the experiment with S. aureus RN4220 was “inactive”.

As to `Cc1noc(C)c1S(=O)(=O)Nc1ccc2c(c1)CC(=O)N([C@@H](C)CO)C[C@@H](C)[C@@H](CN(C)C(=O)Nc1ccc3c(c1)OCO3)O2`, the cytotoxicity call with HSkMC and with HepG2 was “inactive” each time. In addition, in the experiment on S. aureus RN4220, the growth inhibition call was “inactive”.

Consider `O=C(C[C@H]1C[C@@H]2c3cc(NC(=O)C4CCOCC4)ccc3O[C@@H]2[C@H](CO)O1)NCCN1CCCCC1`, for which the cytotoxicity call with HSkMC and in the experiment with HepG2 was “inactive” throughout. The growth inhibition call with S. aureus RN4220 was “inactive”.

`C[C@H]1CN([C@@H](C)CO)C(=O)c2cc(NS(=O)(=O)c3ccc(F)cc3)ccc2O[C@@H]1CN(C)C(=O)Nc1cccc2ccccc12`: the cytotoxicity call in the experiment on HSkMC (human skeletal muscle cells) and in the experiment with HepG2 was “inactive” in each case. Moreover, in the experiment on S. aureus RN4220, the growth inhibition call was “inactive”.
